In PubChem BioAssay AID1508624 (National Center for Advancing Translational Sciences (NCATS), 2021):
Among all 48,000 compounds or so, about 120 (0.25%) were called active. Another 4% or so got no clear call; they are omitted. Calls follow the shape of the dose curve; as a rule, active = well fitted activation curve with a large enough effect; inconclusive = small, poorly fitted or top-dose-only effect, or another doubt; inactive = no such curve, though single readings can be large or run the other way. The list shows a part of the results.

experiment: Primary qHTS for Identification of Small Molecule Activators of Huntingtin-Antisense Promoter Activity; settings: HEK293 HTT-AS promoter firefly luciferase reporter (activity 0% = vehicle and -100% = no light), 24 h; series mostly up to 57.5 µM; activity change, positive = activation: at the top concentration; also: nearly all actives have a fitted effect of over 55% in size
Outline: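 Firefly luciferase readout (Dual-Glo, 10 min RT) after 24 h, 37 °C compound exposure (final up to 57.5 uM) of HEK293 reporter cells cultured 24 h beforehand; PTC124 at 50 uM final as control inhibitor; activity scaled vehicle 0%, zero RLU -100%.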

Activity change, positive = activation, inactive:
COc1ccc(Cl)cc1C(=O)NCc1nnnn1-c1ccccc1 1.6%
CCc1ccc(NC(=O)C(=O)NCC(c2cccnc2)N2CCc3ccccc3C2)cc1 (stereo unspecified) -57.8%
COc1nnc(-c2ccc(N3CCCCC3)c(NC(=O)c3ccccc3Cl)c2)c2ccccc12 -87%
O=C(Nc1sc2c(c1C(=O)NCc1ccccc1)CCCC2)c1cc(=O)c2ccccc2o1 -16%
O=C(NCc1ccc(Cl)cc1)C1CCN(c2ncnc3c2nc2n3CCCCC2)CC1 -6.41%
CCOc1ccccc1C(=O)NCC(c1cccs1)S(=O)(=O)c1ccc(F)c(C)c1 (stereo unspecified) -7.84%
CCc1ccc(NC(=O)CSc2nc3c(c(=O)[nH]2)CN(Cc2ccc(C)cc2)CC3)cc1 -23.5%
Cc1ccc(C)c(N2CCN(C(=O)c3ccc4c(=O)n(CCc5ccccc5)c(=O)[nH]c4c3)CC2)c1 -14.9%
CCCSCCCNC(=O)CN1C(=O)COc2ccc(S(=O)(=O)N3CCCC3)cc21 -6.76%
COc1cc(NC(=O)C2=CC(c3ccco3)=NS(=O)(=O)N2C)cc(OC)c1OC -12.5%
CCOC(=O)c1[nH]c2c(c1Cc1ccccc1OC)C(=O)CC(c1ccccc1)C2 (stereo unspecified) -36.6%
CCCCn1c(=O)c2oc3ccccc3c2n(Cc2ccccc2C)c1=O -11.6%
O=C(COc1ccc(F)cc1)Nc1ccccc1C(=O)OCc1cc(=O)n2ccsc2n1 23.7%
Cc1nc(-c2ccccc2)sc1CCNC(=O)C(=O)Nc1ccc(F)c(Cl)c1 -13.2%
CCOc1ccc(-c2nonc2NC(=O)c2oc3ccc(C)cc3c2C)cc1OCC -0.495%
COc1ccc(Cn2ccn(Cc3cccc(Cl)c3)c(=O)c2=O)cc1 -12.9%
Cc1ccc(S(=O)(=O)Cc2nc(-c3ccc(C(=O)NCc4ccccc4C)cc3)oc2C)cc1 -25.4%
CCCn1cc(S(=O)(=O)c2ccc(OC)cc2)c(=O)c2cc(F)c(N3CCCC(C)C3)cc21 (stereo unspecified) -28.7%
CC(=O)c1ccc(NC(=O)C2=CC(c3ccc(C)cc3)=NS(=O)(=O)N2C)cc1 -30.8%
O=C(COc1ccccc1F)Nc1c(C(=O)Nc2cccc(F)c2)oc2ccccc12 9.84%
Cc1ccc(C(=O)Nc2nc3nc(-c4ccccc4)cc(=O)n3[nH]2)cc1 11.4%
O=C(Nc1cc(-c2ccccc2F)nn1-c1ccccc1)c1ccccc1Br -26.6%
CCCCCOC(=O)CSc1nc2sc3c(c2c(=O)n1-c1ccccc1)CC(C)(CC)OC3 (stereo unspecified) -9.45%
CC1CCN(C(=O)Cn2cc(SCC(=O)Nc3ccccc3)c3ccccc32)CC1 -4.33%
COc1cccc(-c2nc(SCC(=O)NCc3ccco3)c3c(=O)n(C)c(=O)n(C)c3n2)c1 7.07%
CCOC(=O)c1noc2ncnc(N3CCN(c4cccc(C(F)(F)F)c4)CC3)c12 -10.9%
